Results on 56 compounds are retold here after PMC4336329 (PLoS ONE, 2015).

Out of some 310,000 compounds screened, about 14,000 (4.5%) showed an effect of 50% or more. The effect is printed as a negative number. Some of the results follow.
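Note: peak tail current of the secondary pulse compared with the same well before compound.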

In this test the target is human ether-à-go-go-related gene (hERG) potassium channel (human, UniProt Q12809). The test is described as follows: primary screen, population patch clamp on CHO cells stably expressing hERG.
human ether-à-go-go-related gene (hERG) potassium channel, sequence (Q12809 whole entry, looked up): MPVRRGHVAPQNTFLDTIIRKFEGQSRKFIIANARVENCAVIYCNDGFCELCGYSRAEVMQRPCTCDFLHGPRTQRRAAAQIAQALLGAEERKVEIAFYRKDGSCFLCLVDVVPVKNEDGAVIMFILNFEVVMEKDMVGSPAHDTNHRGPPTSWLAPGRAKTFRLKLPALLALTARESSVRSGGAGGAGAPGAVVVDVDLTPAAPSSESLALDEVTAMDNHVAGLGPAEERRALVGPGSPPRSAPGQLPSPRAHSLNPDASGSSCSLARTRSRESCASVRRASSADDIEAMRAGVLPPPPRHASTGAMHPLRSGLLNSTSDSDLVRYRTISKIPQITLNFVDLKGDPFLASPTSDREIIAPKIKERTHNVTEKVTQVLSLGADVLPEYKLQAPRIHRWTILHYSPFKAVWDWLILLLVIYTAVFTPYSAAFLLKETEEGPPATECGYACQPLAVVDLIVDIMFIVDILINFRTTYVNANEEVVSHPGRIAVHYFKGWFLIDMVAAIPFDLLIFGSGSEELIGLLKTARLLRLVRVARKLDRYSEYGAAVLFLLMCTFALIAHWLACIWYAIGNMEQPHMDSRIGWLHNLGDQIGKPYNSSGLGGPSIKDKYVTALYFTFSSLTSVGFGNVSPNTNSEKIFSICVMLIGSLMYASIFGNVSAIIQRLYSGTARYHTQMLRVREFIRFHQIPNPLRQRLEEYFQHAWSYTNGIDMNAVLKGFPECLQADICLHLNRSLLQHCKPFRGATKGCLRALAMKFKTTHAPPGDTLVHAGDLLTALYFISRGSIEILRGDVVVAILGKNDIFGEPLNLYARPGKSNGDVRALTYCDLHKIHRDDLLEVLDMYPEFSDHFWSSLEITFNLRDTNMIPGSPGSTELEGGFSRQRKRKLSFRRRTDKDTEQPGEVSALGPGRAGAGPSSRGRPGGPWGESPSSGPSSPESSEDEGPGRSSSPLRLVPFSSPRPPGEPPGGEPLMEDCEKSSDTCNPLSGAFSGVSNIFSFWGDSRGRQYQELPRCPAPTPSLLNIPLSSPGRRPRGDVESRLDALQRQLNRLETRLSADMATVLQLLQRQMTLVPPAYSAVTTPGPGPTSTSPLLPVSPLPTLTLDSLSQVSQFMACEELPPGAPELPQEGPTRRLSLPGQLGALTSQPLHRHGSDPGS
With `COc1ccccc1NC(=O)C(C)OC(=O)CC1CCCC1` (centres unmarked), the “hERG current change (%, negative = inhibition) at 10uM” value amounted to 0.474%.
To `CN(C)S(=O)(=O)c1ccc(C(=O)N2CCN=C2SCc2ccccc2)cc1` belongs 20.9%.
To `CCCCNC(=S)Nc1ccccc1Cc1ccccc1` belongs 10.7%; to `C=CCNC(=O)/C(=C\c1cccc([N+](=O)[O-])c1)NC(=O)c1ccccc1`, -53.4%; to `COc1cc(CNc2ccc3[nH]c(=O)[nH]c3c2)ccc1OCc1ccccc1Cl`, 26.4%.
`Fc1ccc(NC(=S)Nc2ccccc2OC(F)F)cc1Cl`: the “hERG current change (%, negative = inhibition) at 10uM” value turned out to be 9.18%.
For `Cc1cc(C)n(CCCNCC(O)c2ccccc2)n1.O=C(O)C(=O)O` (centres unmarked) the value was -0.223%; for `CCOn1c(SCC)nc2ccccc2c1=O`, -15.7%.
For `CCOc1ccc(S(=O)(=O)N2CCN(C(=O)c3cccn3C)CC2)cc1` the value was -29.5%; for `CC1CN(C(=O)COc2ccc3c(-c4ccccc4)cc(=O)oc3c2)CC(C)O1` (centres unmarked), -12.8%; for `COc1ccc2c(c1)O[C@H](c1ccc3c(c1)OCO3)[C@@H](OC(=O)Nc1cc(OC)c(OC)c(OC)c1)C2=O`, 2.73%.
For `Oc1ccc(-c2sc(Nc3ccccc3)n[n+]2-c2ccc(F)cc2)cc1.[Cl-]` the value was -1.63%; for `CCCCN1C(=O)c2ccc(C(=O)Nc3c(N)n(CCCC)c(=O)n(C)c3=O)cc2C1=O`, -51.9%.
As for `CC1CCN(C2(O)C(=O)Nc3ccc(Cl)cc32)CC1` (centres unmarked), the “hERG current change (%, negative = inhibition) at 10uM” value came to 4.26%.
To `COC(=O)C1=C(N)N(c2ccccc2F)C2=C(C(=O)CC(C)(C)C2)C1c1ccc(OC)c(OC)c1` (centres unmarked) belongs -36.2%; to `CCOC(=O)c1sc2ncnc(N3CCN(C)CC3)c2c1C`, -24.3%; to `Cc1cccc2cc(CN(Cc3ccco3)C(=O)c3ccncc3)c(=O)[nH]c12`, -31.6%.
For `O=C(O)CSc1nnc(COc2cccc3cccnc23)n1-c1cccc(C(F)(F)F)c1`, the “hERG current change (%, negative = inhibition) at 10uM” value is 26.5%.
To `Cc1ccc(OCC(=O)Nc2nnn(C)n2)c(C)c1` belongs 6.25%; to `Cc1ccc2c(C(=O)CN3CCCC3)c(C)[nH]c2c1`, -6.89%; to `C=CCn1cccc(C(=O)Nc2ccc(Cl)cc2)c1=O`, -3.33%.
To `CCOC(=O)c1cc(CC)sc1NC(=O)C1CC1` belongs -7.16%.
For `COc1ccccc1-c1nc(C#N)c(N2CCN(Cc3ccccc3)CC2)o1`, the “hERG current change (%, negative = inhibition) at 10uM” value was -10.3%.
In the case of `O=C1CC(c2ccccc2)CC2=C1C=Nc1ccccc1N2` (centres unmarked), the “hERG current change (%, negative = inhibition) at 10uM” value is reported as -61%.
To `Nc1nonc1-c1nc2ccccc2n1CC(=O)NC1CCCC1` belongs -9.7%; to `CC1(C)Cn2c(nc(=O)c3c2NCN(CCc2ccccc2)C3)S1`, -0.167%.
For `NCc1cccc(CNc2ccc([N+](=O)[O-])cc2C(N)=O)c1` the value was -19.9%; for `CC(C)NC(=O)C1CCN(S(=O)(=O)c2ccc(N3CCCC3=O)cc2)CC1`, 16.2%.
For `N=C1C(c2nc3ccccc3[nH]2)=C(O)CN1c1ccc(F)cc1` the value was -0.0371%; for `CC(C)(C)c1cc(C(F)(F)F)n2ncc(-c3ccccc3)c2n1`, 11.1%; for `S=C(NCc1ccc(Cl)c(Cl)c1)NCc1ccco1`, -2.07%.
For the compound `NC(=O)CC(NC(=O)Cc1cccc2ccccc12)c1ccc(N2CCC(Br)CC2)c([N+](=O)[O-])c1` (centres unmarked), the “hERG current change (%, negative = inhibition) at 10uM” value is recorded as -9.19%.
To `CCSc1nc(-c2ccccc2)c(C#N)c(=O)[nH]1` belongs 12.5%.
To `COc1cc(C(=O)OCC(=O)NC(=O)c2cccn2C)ccc1OC(F)F` belongs 16.5%; to `Cc1ccc(C(=O)N2CCN(C34CC5CC(CC(C5)C3)C4)CC2)o1`, -29.4%.
To `Cn1c(SCC(=O)NC2CC2)nnc1-c1cccc(NC(=O)c2ccccc2F)c1` belongs -3.11%; to `COc1ccc(C2c3ccc4ccccc4c3Oc3ncn(CCCO)c(=N)c32)cc1` (centres unmarked), -71.6%; to `Cc1cc(C)n(-c2ccc(Cl)c(C(=O)Nc3cc(C(F)(F)F)ccc3Cl)n2)n1`, 7.18%.
In the case of `Cc1ccc2nc(SCC(=O)N3CCC(Cc4ccccc4)CC3)nc(=O)n2c1`, the “hERG current change (%, negative = inhibition) at 10uM” value is recorded as -65%.
For `CC(=O)CC1(O)C(=O)N(CN2CCN(c3ccccc3)CC2)c2ccccc21` (centres unmarked) the value was -8.62%; for `COc1ccccc1CNC(=O)CCS(=O)(=O)c1cccc2nonc12`, 7.52%; for `COc1ccc(S(=O)(=O)Nc2cc3c4c(c2)CC(=O)N4CCC3)cc1`, -6.18%.
Regarding `Cc1ccc(NS(=O)(=O)c2c(C(=O)N3CCCCCC3)c(C)n(C)c2C)c(Cl)c1`, the “hERG current change (%, negative = inhibition) at 10uM” value is on record as -4.38%.
As for `COCc1cc(CNC(=O)C2CCC(=O)N(Cc3ccccc3F)C2)[nH]n1` (centres unmarked), the “hERG current change (%, negative = inhibition) at 10uM” value stood at 15.8%.
Turning to `CCOC(=O)CNC(=O)c1c2c(nc3ccccc13)CCCC2`, the “hERG current change (%, negative = inhibition) at 10uM” value is 10.7%.
`O=C(/C=C/c1ccc(Cl)cc1)NCCN1CCOCC1`: the “hERG current change (%, negative = inhibition) at 10uM” value is -24%.
To `C[n+]1ccccc1/C=C/c1ccc2ncccc2c1.[I-]` belongs 18.4%; to `CCN(CC(=O)NCc1cccs1)C(=O)c1cc(S(=O)(=O)N2CCOCC2)ccc1C`, -20.4%; to `O=C(CCCn1c(=O)c2cccn2c2cccnc21)NCc1cccc(Br)c1`, -13.8%.
Turning to `CCn1c(COc2ccc(=O)n(-c3ccccc3)n2)nnc1SC`, the “hERG current change (%, negative = inhibition) at 10uM” value was determined as 2.39%.
For `Cn1c(Cn2c(=O)sc3ccccc32)nnc1SCC(=O)Nc1cccc(Cl)c1` the value was 6.52%; for `CCSc1ccc(C(=O)NCC(=O)O)cc1`, 13.1%; for `Cc1nn(C)c(C)c1NC(=O)c1cnn2c(C(F)F)cc(-c3ccccc3)nc12`, 40.4%.
To `CCn1ncc(C2=NOC(C(=O)NCc3ccccc3)C2)c1C` (centres unmarked) belongs -8.34%; to `Cn1cnnc1SCC(=O)NCc1cccc(C(F)(F)F)c1`, 23.8%; to `S=C(NCCCN1CCOCC1)Nc1cccc(-c2nnc3n2CCCCC3)c1`, 16.3%.
